Experimental data from the BET-seq Pho4 binding data (Le et al. 2018).
This is one part of the list. The energies were worked out here from pooled read counts, against the library average; single values are noisy.

Biological target: T1, Pho4 (S. cerevisiae) (UniProt P07270)
T1 sequence: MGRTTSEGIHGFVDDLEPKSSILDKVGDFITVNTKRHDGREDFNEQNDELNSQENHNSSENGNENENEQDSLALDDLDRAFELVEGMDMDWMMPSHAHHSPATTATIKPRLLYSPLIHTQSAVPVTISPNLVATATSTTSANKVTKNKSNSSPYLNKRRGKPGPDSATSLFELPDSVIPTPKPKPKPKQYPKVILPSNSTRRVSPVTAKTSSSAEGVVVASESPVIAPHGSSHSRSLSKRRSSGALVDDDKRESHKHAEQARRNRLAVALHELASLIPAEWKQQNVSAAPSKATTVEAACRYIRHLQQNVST
Test: relative binding free energy (BET-seq); higher = weaker binding
Conditions: reference: library average

| Sequence | relative binding free energy [kcal/mol] |
| --- | --- |
| GGGCCCACGTGCGGGG | -0.25 |
| AGTGACACGTGAAGTT | 0.2 |
| GGGGGCACGTGGGAAT | -0.11 |
| TTGTCCACGTGTTGCT | 0 |
| CTTGTCACGTGAGTTT | 0.32 |
| CAGGTCACGTGGTTCT | 0.15 |
| TTTTTCACGTGTATCA | 0.28 |
| TTAGACACGTGTGAAG | 0.09 |
| GTTGTCACGTGGTATA | 0.07 |
| GGTTTCACGTGCTCGG | 0.27 |
| ATTTGCACGTGGTGCA | -0.18 |
| TTCGTCACGTGGGCGT | -0.08 |
| ATTTTCACGTGGCTAT | 0.21 |
| TTGGTCACGTGTGGTT | 0.19 |
| ATTGGCACGTGGCAAT | -0.24 |
| TGTTACACGTGAGGTT | 0.26 |
| AAGGCCACGTGGTATG | 0 |
| AGTGGCACGTGTTTTA | -0.11 |
| CATGGCACGTGGTGAG | -0.19 |
| ACTGGCACGTGTAAGG | 0.24 |
| GAGAGCACGTGGTGTT | -0.2 |
| TGCGTCACGTGGATGG | 0.06 |
| AGTTGCACGTGGTAGG | -0.01 |

| Sequence | relative binding free energy [kcal/mol] |
| --- | --- |
| GGGTACACGTGGTTAG | 0.12 |
| TTTGGCACGTGTGTCG | -0.11 |
| CACCGCACGTGGGGGG | -0.24 |
| TCTGACACGTGTTTTT | 0.09 |
| TATGTCACGTGGCGTC | 0.01 |
| GTCGTCACGTGAGTTT | 0.17 |
| AGTGTCACGTGAGTTC | 0.27 |
| TTTTCCACGTGGTAGA | 0.08 |
| CGGGTCACGTGCTGCG | -0.02 |
| TGTGTCACGTGGTCGG | 0.03 |
| GTTGGCACGTGTAGTA | 0.04 |
| GACTGCACGTGTGAGT | 0.17 |
| CTCGTCACGTGGGATG | -0.01 |
| TGTTACACGTGATATT | 0.31 |
| GGGCGCACGTGTACGT | 0.04 |
| CAGGACACGTGGGTTT | -0.06 |
| TGTACCACGTGGTGAT | -0.14 |
| TCTTACACGTGGAGGT | 0.16 |
| CGAGTCACGTGTGTAT | 0.18 |
| TGTGTCACGTGTAGTA | 0.13 |
| CGTTCCACGTGGGTTG | -0.16 |
| TGTAGCACGTGCGTTG | -0.17 |
| TGTTGCACGTGACAGG | 0.01 |

| Sequence | relative binding free energy [kcal/mol] |
| --- | --- |
| GACAGCACGTGGGTTG | -0.04 |
| GGTGCCACGTGGCGGT | 0 |
| TTATACACGTGGAATT | 0.07 |
| GTGGTCACGTGTACAT | 0.16 |
| CGGGACACGTGCTTGG | -0.08 |
| TGCAGCACGTGGCTTT | -0.13 |
| GCGTTCACGTGTCTGT | 0.46 |
| GACGTCACGTGGATTT | 0.28 |
| ATGTACACGTGGTGTT | -0.09 |
| TGGGGCACGTGCGTTC | -0.26 |
| GGTGTCACGTGGTAGC | 0.21 |
| GGGTTCACGTGTTTCT | 0.46 |
| GGGGCCACGTGGATGA | -0.09 |
| TCGGTCACGTGGGCTG | 0.08 |
| TAGAACACGTGTTAAT | 0.18 |
| TACGTCACGTGGTTTG | -0.01 |
| CGGTTCACGTGTGTAC | 0.31 |
| TGTAGCACGTGCAGGT | -0.22 |
| GTGGTCACGTGATGCG | 0.31 |
| CAAGTCACGTGATGGT | 0.37 |
| TAGATCACGTGGAATT | 0.22 |
| TTTTTCACGTGCCTTC | 0.33 |
| GGGTGCACGTGGTCTT | 0.01 |

| Sequence | relative binding free energy [kcal/mol] |
| --- | --- |
| TTAGGCACGTGTTGGA | -0.18 |
| TTAATCACGTGGCATG | 0.21 |
| GGTGGCACGTGCGTTG | -0.08 |
| GTGCTCACGTGGTGTA | 0.18 |
| ATGGTCACGTGGAATC | 0.38 |
| TATGGCACGTGATTCG | 0.05 |
| GTTTTCACGTGGCTTT | 0.39 |
| GTTATCACGTGGGTAC | -0.06 |
| ACTGACACGTGGGGTT | -0.12 |
| AGTGTCACGTGAGTAA | 0.27 |
| CATGGCACGTGGATGT | -0.01 |
| GGGTCCACGTGGTTCG | 0 |
| CGTAGCACGTGGTTTA | -0.22 |
| GTTTACACGTGTGGGT | 0.24 |
| AACTTCACGTGGGGGT | 0.04 |
| CAGGTCACGTGTGTAA | 0.1 |
| GAGATCACGTGGTGTT | 0.17 |
| TGAGTCACGTGTTCTT | 0.2 |
| GTTTGCACGTGGCTAG | 0 |
| CAGGGCACGTGTATTT | -0.04 |
| TCGTTCACGTGTCGTT | 0.24 |
| GATATCACGTGGGTGT | 0.16 |
| GGTTGCACGTGCTCGA | 0.14 |

| Sequence | relative binding free energy [kcal/mol] |
| --- | --- |
| CTGTTCACGTGGTTCT | 0.23 |
| CGTTTCACGTGTATTA | 0.21 |
| TAAGCCACGTGGTAGT | -0.15 |
| GGAGACACGTGGGTAT | -0.08 |
| TGCGGCACGTGTTGGT | 0 |
| GGTGCCACGTGGGGAC | -0.31 |
| CTAATCACGTGTGAGT | 0.3 |
| TTTTTCACGTGCGGCT | 0.28 |
| GGCCGCACGTGGTAGT | -0.15 |
| AACTGCACGTGTGTTT | 0.17 |
| TGAGTCACGTGTATCA | 0.11 |
| AATTGCACGTGGGAGA | -0.09 |
| TGCGTCACGTGGACTG | 0.06 |
| TATTACACGTGTTTCG | 0.02 |
| TGGTCCACGTGGTGCT | 0 |
| TAAGTCACGTGATTCG | 0.13 |
| AGGTCCACGTGGTGAT | 0.09 |
| GTGGACACGTGTGATG | 0.11 |
| TCCGGCACGTGTGAGG | 0 |
| TTTAGCACGTGTCTAT | -0.11 |
| GGTGGCACGTGGGGTG | -0.14 |
| TGTTACACGTGGTGGG | 0.12 |
| GTATTCACGTGATAAT | 0.32 |
